Hit rate of the full screen: of about 310,000 compounds, about 2,200 (0.71%) showed an effect of 50% or more. The effect is printed as a negative number. The list shows a part of the results.
Each compound was assayed against human ether-à-go-go-related gene (hERG) potassium channel (human, UniProt Q12809) (assay: primary screen, population patch clamp on CHO cells stably expressing hERG).
human ether-à-go-go-related gene (hERG) potassium channel, sequence (Q12809 whole entry, looked up): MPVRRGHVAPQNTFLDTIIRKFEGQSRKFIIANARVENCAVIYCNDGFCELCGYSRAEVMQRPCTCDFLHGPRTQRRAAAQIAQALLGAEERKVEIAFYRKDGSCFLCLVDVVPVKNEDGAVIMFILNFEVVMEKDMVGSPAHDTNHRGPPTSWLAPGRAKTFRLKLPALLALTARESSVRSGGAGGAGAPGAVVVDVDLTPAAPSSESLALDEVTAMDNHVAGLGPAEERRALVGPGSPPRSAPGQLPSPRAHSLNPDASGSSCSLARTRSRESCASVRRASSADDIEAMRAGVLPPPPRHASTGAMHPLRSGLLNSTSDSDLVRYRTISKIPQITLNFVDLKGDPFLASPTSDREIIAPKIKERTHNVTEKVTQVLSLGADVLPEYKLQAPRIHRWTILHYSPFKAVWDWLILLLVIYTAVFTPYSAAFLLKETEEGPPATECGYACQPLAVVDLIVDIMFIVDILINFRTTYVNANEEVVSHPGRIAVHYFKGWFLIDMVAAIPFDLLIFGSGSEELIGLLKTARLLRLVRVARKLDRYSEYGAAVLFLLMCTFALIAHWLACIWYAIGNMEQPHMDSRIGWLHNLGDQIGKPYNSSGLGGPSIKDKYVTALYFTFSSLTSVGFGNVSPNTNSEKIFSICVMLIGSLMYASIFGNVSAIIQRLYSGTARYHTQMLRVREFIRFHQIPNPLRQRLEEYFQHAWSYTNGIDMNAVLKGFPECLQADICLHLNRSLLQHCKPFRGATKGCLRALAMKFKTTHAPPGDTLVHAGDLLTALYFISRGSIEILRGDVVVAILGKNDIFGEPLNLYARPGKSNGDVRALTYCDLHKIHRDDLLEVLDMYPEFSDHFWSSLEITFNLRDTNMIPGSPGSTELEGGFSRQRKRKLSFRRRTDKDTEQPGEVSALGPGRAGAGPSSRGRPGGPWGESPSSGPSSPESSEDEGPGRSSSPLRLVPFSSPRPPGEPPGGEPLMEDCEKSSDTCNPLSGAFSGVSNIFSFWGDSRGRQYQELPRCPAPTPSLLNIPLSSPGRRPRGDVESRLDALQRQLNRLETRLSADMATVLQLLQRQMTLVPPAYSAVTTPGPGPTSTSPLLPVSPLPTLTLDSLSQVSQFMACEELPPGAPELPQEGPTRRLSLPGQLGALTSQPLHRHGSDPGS

Compound | hERG current change (%, negative = inhibition) at 1uM
Cc1ccnc2nc(C(=O)OCC(=O)Nc3ccc4c(c3)OC(F)(F)O4)nn12 | -11.3%
Cc1onc(-c2ccccc2Cl)c1C(=O)NCc1ccccn1 | 13.7%
CCC(C)N1CC(=O)N2C(c3ccc(OC)cc3OC)c3[nH]c4ccccc4c3C[C@H]2C1=O (stereo partly shown) | 8.24%
COc1ccc(C2CC(c3cccs3)=NN2C(=O)c2ccccc2)cc1OC (stereo not shown) | -19.2%
CCOc1ccc(C(NC(=O)/C=C/c2ccco2)c2ccc(OC)c(OC)c2)cc1 (stereo not shown) | 1.81%
CCn1cc(C(=O)N2CCC3(CC2)OCCO3)c(=O)c2cc(S(=O)(=O)N3CCCC3)ccc21 | 15.9%
Cc1cc(C)n(Cc2ccc(C(=O)O)cc2)n1 | 15%
CCC(C)N1C(=O)/C(=C/c2ccc3c(c2)CCN3CCCCl)C(=O)NC1=S (stereo not shown) | 8.23%
CCn1[nH]c(=O)c(=Nc2c(C)n(C)n(-c3ccccc3)c2=O)cc1-c1ccc(Cl)cc1 | -0.399%
Cc1cccc(N(C(=O)CCC(=O)Nc2cc(C)on2)C(C(=O)NC2CCCC2)c2cccnc2)c1 (stereo not shown) | 28.3%
CCC(c1nnnn1CCC(C)C)N1CCC(C(N)=O)CC1 (stereo not shown) | 5.03%
Cc1ccc(N2C(N)=C(C#N)C(c3ccsc3)C3=C2CC(C)(C)CC3=O)cc1 (stereo not shown) | 12.1%
COCCN(C(=O)c1cc2c(s1)CCC2)c1c(N)n(CC(C)C)c(=O)[nH]c1=O | 6.68%
COC(=O)c1sccc1NC(=O)NC1CCCCC1 | 7.73%
CC1CCN(C(=O)CCc2nnc(-c3ccccc3)o2)CC1 | 3.92%
COc1ccc(C(=O)NNC(=O)C(=O)Nc2ccc(C)c(Cl)c2)cc1 | 5.83%
COC(=O)c1ccccc1NC(=S)NC(=O)COc1ccccc1 | 16.9%
O=C(NC(=S)NN1CCCCC1c1cccnc1)c1ccc(Cl)cc1Cl (stereo not shown) | 10.1%
O=C(O)c1ccc(Cn2cnc3scc(-c4ccccc4)c3c2=O)cc1 | 8.99%
O=C(Nc1ccc(C#Cc2ccccc2)cc1)C1CC1 | 10.5%
NC(=O)[C@H]1CC2(CC(c3cccc(NC(=O)CC(c4ccccc4)c4ccccc4)c3)=NO2)CN1C(=O)CC(c1ccccc1)c1ccccc1 (stereo partly shown) | 14.8%
NS(=O)(=O)c1ccc(NC(=O)CSc2ccccc2)cc1 | 1.83%
Cc1cc(=O)n2nc(N3CCCC(C(=O)NC(C)c4ccccc4)C3)sc2n1 (stereo not shown) | 10.9%
O=C(NCCCN1CCCCC1)C1CCC(=O)N1CCc1ccccc1 (stereo not shown) | 18.4%
CCOC(=O)C1=C(C)NC(=O)NC1 | 0.299%
Cc1ccc(C2CC(c3cccc(C)c3)n3ncnc3N2)cc1 (stereo not shown) | 8.91%
Cc1ccc(C)c(NC(=S)N/N=C2/CCCCc3ccccc32)c1 | 10.6%
O=C(CN1CCN(Cc2ccccc2)CC1)N/N=C/c1cccs1 | 8.72%

Compound | hERG current change (%, negative = inhibition) at 1uM
CC(C)Cc1nnc(NC(=O)CCC(=O)N2CCN(C3CCCC3)CC2)s1 | 4.55%
CC(C)CCNC(=O)CN(C(=O)Cn1nnc(-c2ccccc2F)n1)c1cccc2c1CCCC2 | -1.01%
O=C(CCCN1C(=O)C(c2ccccc2)Oc2cccnc21)NCc1ccc(F)cc1 (stereo not shown) | 6.4%
COc1ccc(NC(=S)N(CCCOC(C)C)C2CCN(C(C)=O)CC2)cc1Cl | 10.7%
CCN=C1SC(C(=O)Nc2cccc(OCC)c2)CC(=O)N1CC (stereo not shown) | 3.05%
Cc1ccc(C)c(C(=O)CCC(=O)NNC(=O)Cn2nc(C)cc2C)c1 | 2.19%
CCc1nnc(NC(=O)CSc2nnc(Cc3ccccc3)n2-c2ccc(OC)cc2)s1 | 8.85%
CCOc1ccc(OCC(=O)OCn2c(SC)nnc(C)c2=O)cc1 | 19.2%
COc1ccc(NC(=O)c2ccc3c(c2)C(=O)N(CC2CCCO2)C3=O)cc1 (stereo not shown) | 11.6%
Cc1cccc(-c2c3c(=O)n(C)c(=O)n(C)c3c3cccnn23)c1 | -6.6%
CC(NC(=O)C(=O)NN=C1CCCCCC1)c1ccccc1 (stereo not shown) | 7.6%
Cc1ccc(C2=NC3(CCCCCC3)NC2=S)cc1 | -0.801%
COc1ccc(-c2ccc(OC)c([C@H]3[C@@H]4C=CCC[C@@]4(C)C(=O)N3Cc3ccccc3)c2)cc1OC | 12.7%
Fc1ccc(F)c(C2=NNC(=Nc3ccccc3F)SC2)c1 | 31.5%
COc1ccc2oc(C(F)(F)C(F)(F)F)cc(=O)c2c1 | 14.3%
CN(C)/C=C1\Oc2ccc3ccccc3c2C1=O | 12.4%
CCOC(=O)C1CCN(c2c(NCc3ccc(C(=O)N(C)Cc4ccccc4)cc3)c(=O)c2=O)CC1 | 12.4%
COC(=O)C(C)n1cnc2c(cnn2-c2ccc(Cl)cc2)c1=O (stereo not shown) | -9.92%
NS(=O)(=O)c1ccc(NC(=O)N2c3ccccc3Sc3ccccc32)cc1 | 11.2%
CCN(CC(=O)Nc1ccc(NC(C)=O)cc1)C(=O)CCCc1c[nH]c2ccccc12 | 11.5%
COc1ccc(CNC(=O)C2C3C=CC4(CN(Cc5cccnc5)C(=O)C24)O3)cc1 (stereo not shown) | 4.2%
O=C(NCC(c1cccnc1)N1CCN(c2ccccc2)CC1)C1CCCCC1 (stereo not shown) | -0.22%
O=C(NCCN1CCCC1=O)C1CCC(=O)N(CCc2cccc(F)c2)C1 (stereo not shown) | 11.8%
O=C1CC(c2ccccc2)CC(O)=C1C=Nc1ccccc1O (stereo not shown) | 12.6%
COc1ccc(NC(=S)NCCCN2CCCC2=O)c(OC)c1 | 11.6%
Cc1cnc(NC(=O)Nc2ccccc2)c(C)n1 | 6.05%
O=C(CCOc1ccccc1)Nc1nnc(-c2ccc3c(c2)OCCO3)o1 | 16.1%

— article PMC4336329 (PLoS ONE, 2015)
